In the supplement of paper PMC11876631:
Changes are numbered by the printed parent chain. In names and notes the source's numbering stands. ± gives the standard deviation of the averaged measurements. Laboratory Escherichia coli strains with one amino-acid change in an essential protein, pooled on minimal glucose agar with carbenicillin or gentamicin at twice the control MIC (plus kanamycin and chloramphenicol for the plasmids), 48 h. Fold change of barcode share against drug-free plates; higher = less susceptible. Active = above 20 in both replicates (the paper's putatively resistant). '<' = one read or none on drug, '>' = one read or none on a drug-free plate. Shares are relative, so most strains fall below 1 when a few take over. Listed are strains with at least 15 reads on both drug-free plates, and hits; most hits rest on fewer reference reads. Replicate rank correlation about 0.5. Edits are read from barcodes.

B1: metB I80D (protein)
chain: MTRKQATIAVRSGLNDDEQYGCVVPPIHLSSTYNFTGFNEPRAHDYSRRGNPTRDVVQRALAELEGGAGAVLTNTGMSADHLVTTVFLKPGDLLVAPHDCYGGSYRLFDSLAKRGCYRVLFVDQGDEQALRAALAEKPKLVLVESPSNPLLRVVDIAKICHLAREVGAVSVVDNTFLSPALQNPLALGADLVLHSCTKYLNGHSDVVAGVVIAKDPDVVTELAWWANNIGVTGGAFDSYLLLRGLRTLVPRMELAQRNAQAIVKYLQTQPLVKKLYHPSLPENQGHEIAARQQKGFGAMLSFELDGDEQTLRRFLGGLSLFTLAESLGGVESLISHAATMTHAGMAPEARAAAGISETLLRISTGIEDGEDLIADLENGFRAANKG
B2: metB V24Q (protein)
chain: B1 chain with V24Q, D80I
B3: metB V210W (protein)
chain: B1 chain with D80I, V210W
B4: metB V210Q (protein)
chain: B1 chain with D80I, V210Q
B5: metB V207A (protein)
chain: B1 chain with D80I, V207A
B6: metB V207P (protein)
chain: B1 chain with D80I, V207P
B7: metB V207W (protein)
chain: B1 chain with D80I, V207W
B8: metB I156Q (protein)
chain: B1 chain with D80I, I156Q
B9: metB V207Q (protein)
chain: B1 chain with D80I, V207Q
B10: metB V210A (protein)
chain: B1 chain with D80I, V210A
B11: metB I80P (protein)
chain: B1 chain with D80P
B12: metB V24A (protein)
chain: B1 chain with V24A, D80I

Biological target: Escherichia coli (laboratory strain)
Assay: barcode share on antibiotic plates over drug-free plates; higher = less susceptible
Details: antibiotic: carbenicillin; 2× MIC (3.1 µg/mL)
Protocol: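 A pool of E. coli strains, each edited to carry one amino-acid change in an essential protein, was grown for 48 h on minimal glucose agar with or without antibiotic; strain barcodes were sequenced; mean of two replicates.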

| Protein | fold change of barcode share |
| --- | --- |
| B1 | 0.772 ± 0.5 |
| B2 | 0.411 ± 0.23 |
| B3 | 0.343 ± 0.17 |
| B4 | 0.373 ± 0.062 |
| B5 | 0.386 ± 0.1 |
| B6 | 0.601 ± 0.063 |
| B7 | 0.408 ± 0.014 |
| B8 | 0.324 ± 0.061 |
| B9 | 0.458 ± 0.028 |
| B10 | 0.323 ± 0.17 |
| B11 | 0.866 ± 0.029 |
| B12 | 0.216 ± 0.054 |

Same assay, conditions: antibiotic: gentamicin; 2× MIC (MIC 0.45 µg/mL)

| Protein | fold change of barcode share |
| --- | --- |
| B1 | 0.00905 ± 0.00054 |
| B2 | 0.033 ± 0.018 |
| B3 | 0.0365 ± 0.043 |
| B4 | 0.0104 ± 0.0028 |
| B5 | 0.00723 ± 0.0044 |
| B6 | 0.0117 ± 0.0047 |
| B7 | 0.0103 ± 0.0072 |
| B9 | 0.00787 ± 0.00061 |
| B10 | < 0.00471 |
| B11 | 0.0173 ± 0.003 |
| B12 | < 0.0139 |
